Positions count from the first letter of the chain named. The list shows a part of the results.
T1: RBFOX1 RRM RbFoxmut (Fox-RRM*) (Homo sapiens, UniProt Q9NWB1 109-208, R118D;E147R;N151S;E152T)
T1 sequence: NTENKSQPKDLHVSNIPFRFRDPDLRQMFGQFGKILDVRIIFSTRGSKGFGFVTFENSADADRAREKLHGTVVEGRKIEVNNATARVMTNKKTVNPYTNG

B1: UUACUGA (DNA:RNA)
RNA: GGGAGACCGGAAUUCAGAUUGUCCUUACUGAUUAAAUCCCGUCGUAGCCACCA
DNA 1: CAATCTGAATTCCGGTCTCCC
DNA 2: TGGTGGCTACGACGGGATT
B2: GCGCCGA (DNA:RNA)
RNA: B1 RNA with U25G, U26C, A27G, U29C
DNA 1: CAATCTGAATTCCGGTCTCCC
DNA 2: TGGTGGCTACGACGGGATT
B3: CUACAGU (DNA:RNA)
RNA: B1 RNA with U25C, U29A, A31U
DNA 1: CAATCTGAATTCCGGTCTCCC
DNA 2: TGGTGGCTACGACGGGATT
B4: GUGGCCA (DNA:RNA)
RNA: B1 RNA with U25G, A27G, C28G, U29C, G30C
DNA 1: CAATCTGAATTCCGGTCTCCC
DNA 2: TGGTGGCTACGACGGGATT
B5: AGGUCCA (DNA:RNA)
RNA: B1 RNA with U25A, U26G, A27G, C28U, U29C, G30C
DNA 1: CAATCTGAATTCCGGTCTCCC
DNA 2: TGGTGGCTACGACGGGATT
B6: CCGUGGA (DNA:RNA)
RNA: B1 RNA with U25C, U26C, A27G, C28U, U29G
DNA 1: CAATCTGAATTCCGGTCTCCC
DNA 2: TGGTGGCTACGACGGGATT
B7: GCGAUGG (DNA:RNA)
RNA: B1 RNA with U25G, U26C, A27G, C28A, A31G
DNA 1: CAATCTGAATTCCGGTCTCCC
DNA 2: TGGTGGCTACGACGGGATT
B8: AGAAGCG (DNA:RNA)
RNA: B1 RNA with U25A, U26G, C28A, U29G, G30C, A31G
DNA 1: CAATCTGAATTCCGGTCTCCC
DNA 2: TGGTGGCTACGACGGGATT
B9: CUGACCA (DNA:RNA)
RNA: B1 RNA with U25C, A27G, C28A, U29C, G30C
DNA 1: CAATCTGAATTCCGGTCTCCC
DNA 2: TGGTGGCTACGACGGGATT
B10: UCUAACC (DNA:RNA)
RNA: B1 RNA with U26C, A27U, C28A, U29A, G30C, A31C
DNA 1: CAATCTGAATTCCGGTCTCCC
DNA 2: TGGTGGCTACGACGGGATT
B11: GCGCGUC (DNA:RNA)
RNA: B1 RNA with U25G, U26C, A27G, U29G, G30U, A31C
DNA 1: CAATCTGAATTCCGGTCTCCC
DNA 2: TGGTGGCTACGACGGGATT
B12: UCCAAAA (DNA:RNA)
RNA: B1 RNA with U26C, A27C, C28A, U29A, G30A
DNA 1: CAATCTGAATTCCGGTCTCCC
DNA 2: TGGTGGCTACGACGGGATT
B13: CAGUUGC (DNA:RNA)
RNA: B1 RNA with U25C, U26A, A27G, C28U, A31C
DNA 1: CAATCTGAATTCCGGTCTCCC
DNA 2: TGGTGGCTACGACGGGATT
B14: AGCCUAG (DNA:RNA)
RNA: B1 RNA with U25A, U26G, A27C, G30A, A31G
DNA 1: CAATCTGAATTCCGGTCTCCC
DNA 2: TGGTGGCTACGACGGGATT
B15: UGGUUUG (DNA:RNA)
RNA: B1 RNA with U26G, A27G, C28U, G30U, A31G
DNA 1: CAATCTGAATTCCGGTCTCCC
DNA 2: TGGTGGCTACGACGGGATT
B16: GUCAGGU (DNA:RNA)
RNA: B1 RNA with U25G, A27C, C28A, U29G, A31U
DNA 1: CAATCTGAATTCCGGTCTCCC
DNA 2: TGGTGGCTACGACGGGATT
B17: GGAUUCA (DNA:RNA)
RNA: B1 RNA with U25G, U26G, C28U, G30C
DNA 1: CAATCTGAATTCCGGTCTCCC
DNA 2: TGGTGGCTACGACGGGATT
B18: UUUUGUG (DNA:RNA)
RNA: B1 RNA with A27U, C28U, U29G, G30U, A31G
DNA 1: CAATCTGAATTCCGGTCTCCC
DNA 2: TGGTGGCTACGACGGGATT
B19: UGAACCA (DNA:RNA)
RNA: B1 RNA with U26G, C28A, U29C, G30C
DNA 1: CAATCTGAATTCCGGTCTCCC
DNA 2: TGGTGGCTACGACGGGATT
B20: AGGGACA (DNA:RNA)
RNA: B1 RNA with U25A, U26G, A27G, C28G, U29A, G30C
DNA 1: CAATCTGAATTCCGGTCTCCC
DNA 2: TGGTGGCTACGACGGGATT
B21: ACGUAGG (DNA:RNA)
RNA: B1 RNA with U25A, U26C, A27G, C28U, U29A, A31G
DNA 1: CAATCTGAATTCCGGTCTCCC
DNA 2: TGGTGGCTACGACGGGATT
B22: UUAUACG (DNA:RNA)
RNA: B1 RNA with C28U, U29A, G30C, A31G
DNA 1: CAATCTGAATTCCGGTCTCCC
DNA 2: TGGTGGCTACGACGGGATT
B23: AGUUUGU (DNA:RNA)
RNA: B1 RNA with U25A, U26G, A27U, C28U, A31U
DNA 1: CAATCTGAATTCCGGTCTCCC
DNA 2: TGGTGGCTACGACGGGATT
B24: UAGAAGU (DNA:RNA)
RNA: B1 RNA with U26A, A27G, C28A, U29A, A31U
DNA 1: CAATCTGAATTCCGGTCTCCC
DNA 2: TGGTGGCTACGACGGGATT
B25: GAUGUCC (DNA:RNA)
RNA: B1 RNA with U25G, U26A, A27U, C28G, G30C, A31C
DNA 1: CAATCTGAATTCCGGTCTCCC
DNA 2: TGGTGGCTACGACGGGATT
B26: UCGCUCC (DNA:RNA)
RNA: B1 RNA with U26C, A27G, G30C, A31C
DNA 1: CAATCTGAATTCCGGTCTCCC
DNA 2: TGGTGGCTACGACGGGATT
B27: CAGCACA (DNA:RNA)
RNA: B1 RNA with U25C, U26A, A27G, U29A, G30C
DNA 1: CAATCTGAATTCCGGTCTCCC
DNA 2: TGGTGGCTACGACGGGATT
B28: UGAUGAC (DNA:RNA)
RNA: B1 RNA with U26G, C28U, U29G, G30A, A31C
DNA 1: CAATCTGAATTCCGGTCTCCC
DNA 2: TGGTGGCTACGACGGGATT
B29: GCGGGCG (DNA:RNA)
RNA: GGGAGACCGGAAUUCAGAUUGUCCGCGGGCGUUAAAUCCCGUCGUAGCCACCA
DNA 1: CAATCTGAATTCCGGTCTCCC
DNA 2: TGGTGGCTACGACGGGATT
B30: CAUUCAC (DNA:RNA)
RNA: GGGAGACCGGAAUUCAGAUUGUCCCAUUCACUUAAAUCCCGUCGUAGCCACCA
DNA 1: CAATCTGAATTCCGGTCTCCC
DNA 2: TGGTGGCTACGACGGGATT
B31: AUAUCAC (DNA:RNA)
RNA: B30 RNA with C25A, A26U, U27A
DNA 1: CAATCTGAATTCCGGTCTCCC
DNA 2: TGGTGGCTACGACGGGATT

These binders were tested against T1, RBFOX1 RRM RbFoxmut (Fox-RRM*) (assay: EMSA; HiTS-Eq, 1 nM pool, 10 min; buffer printed only for the single-RNA assays: 10 mM Tris pH 7.5, 150 mM NaCl, 3.4 mM EDTA, 0.001% NP-40, 30 C). Details: tags: His6 N-terminal (pET28a); label: 5' 32P.
In short: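 Relative association constants, normalised to the cognate motif, were derived by comparing read counts of each RNA species with those of the control reaction. The RNA sequenced was the free fraction, separated by 8% native PAGE after a 10 min equilibration in 50 µL of 1 nM 5′-radiolabelled RNA (7 randomized nucleotides) with increasing concentrations of purified wild-type or mutant RbFox RRM.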

In order of rising binding signal:
1. B3  0.0456 KA relative to UGCAUGU
2. B26  0.0504 KA relative to UGCAUGU
3. B25  0.0533 KA relative to UGCAUGU
4. B12  0.0691 KA relative to UGCAUGU
5. B27  0.0719 KA relative to UGCAUGU
6. B20  0.0746 KA relative to UGCAUGU
7. B6  0.0778 KA relative to UGCAUGU
8. B10  0.0782 KA relative to UGCAUGU
9. B9  0.0814 KA relative to UGCAUGU
10. B19  0.0816 KA relative to UGCAUGU
11. B5  0.0856 KA relative to UGCAUGU
12. B14  0.0894 KA relative to UGCAUGU
13. B16  0.0959 KA relative to UGCAUGU
14. B24  0.097 KA relative to UGCAUGU
15. B1  0.0988 KA relative to UGCAUGU
16. B22  0.104 KA relative to UGCAUGU
17. B7  0.105 KA relative to UGCAUGU
18. B13  0.106 KA relative to UGCAUGU
19. B8  0.107 KA relative to UGCAUGU
20. B28  0.107 KA relative to UGCAUGU
21. B30  0.108 KA relative to UGCAUGU
22. B2  0.109 KA relative to UGCAUGU
23. B11  0.113 KA relative to UGCAUGU
24. B21  0.113 KA relative to UGCAUGU
25. B31  0.113 KA relative to UGCAUGU
26. B4  0.116 KA relative to UGCAUGU
27. B29  0.12 KA relative to UGCAUGU
28. B17  0.137 KA relative to UGCAUGU
29. B18  0.189 KA relative to UGCAUGU
30. B23  0.218 KA relative to UGCAUGU
31. B15  0.874 KA relative to UGCAUGU

From publication PMC9911399, “Two distinct binding modes provide the RNA-binding protein RbFox with extraordinary sequence specificity”
